# Some of the results follow. No stated cut-off is given here; in the data, active = 3.2 or more and inactive = the rest. The signal is at background level for most entries.
# Columns and labels:
# Experiment in all cases: enrichment score (SH2-bound / input frequency) (ratio); bacterial display of known human phosphotyrosine sites (pTyr-Var adds point mutants) read by sequencing; higher = stronger binding; tyrosines were phosphorylated by kinases first
# Conditions in all cases: peptide library: pTyr-Var
# [1] = target: SHP2 C-SH2 domain E139D
# [2] = target: SHP2 C-SH2 domain wild-type
# [3] = target: SHP2 N-SH2 domain L43F
# [4] = target: SHP2 N-SH2 domain T42A
# [5] = target: SHP2 N-SH2 domain T52S
# [6] = target: SHP2 N-SH2 domain wild-type
# 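Further: displayed peptides selected on beads carrying the immobilized SH2 domain, with library peptides lacking any tyrosine serving as negative controls.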
Binder,enrichment score [1],enrichment score [2],enrichment score [3],enrichment score [4],enrichment score [5],enrichment score [6]
FGGLRYGFGVL [KRTAP20-2_Y13_YF],inactive: 1.72,inactive: 1.67,inactive: 1.37,inactive: 1.43,inactive: 1.6,inactive: 1.64
GLRFGYGGLGG [KRTAP20-2_Y15_V17G_YF],inactive: 1.07,inactive: 0.948,inactive: 0.909,inactive: 1.02,inactive: 0.928,inactive: 1.12
GLRCGYGVLGG [KRTAP20-2_Y15_Y13C],inactive: 0.896,inactive: 1.01,inactive: 0.919,inactive: 0.68,inactive: 0.874,inactive: 1.07
LFIGQYSGKKE [L1CAM_Y1229_S1224L],inactive: 2.12,inactive: 1.91,inactive: 1.82,inactive: 1.16,inactive: 1.67,inactive: 1.76
LLPNAYIFVVQ [L1CAM_Y418_A415P_YF],inactive: 0.664,inactive: 0.846,inactive: 0.747,inactive: 0.665,inactive: 0.494,inactive: 0.948
PNAYIYVVQLP [L1CAM_Y420_A415P],inactive: 1.47,inactive: 1.76,inactive: 1.59,inactive: 1.48,inactive: 1.64,inactive: 1.87
PNAFIYVVQLP [L1CAM_Y420_A415P_YF],inactive: 1,inactive: 1.3,inactive: 0.989,inactive: 0.816,inactive: 1.01,inactive: 1.36
ANAFIYDVQLP [L1CAM_Y420_V421D_YF],inactive: 1.01,inactive: 0.883,inactive: 1.03,inactive: 0.884,inactive: 1.06,inactive: 0.905
STFVPCEIKVQ [L1CAM_Y784_Y784C],inactive: 0.802,inactive: 1,inactive: 1.01,inactive: 0.744,inactive: 0.797,inactive: 0.961
KENITYMKREQ [L1TD1_Y24],inactive: 0.748,inactive: 0.941,inactive: 0.594,inactive: 0.542,inactive: 0.664,inactive: 0.67
IRSGIYFKPES [L2HGDH_Y102_H98R_YF],inactive: 1.08,inactive: 1.23,inactive: 1.31,inactive: 1.04,inactive: 1.41,inactive: 1.15
IFSGIYFKPES [L2HGDH_Y102_H98Y_YF],inactive: 1.86,inactive: 1.66,inactive: 2.9,inactive: 1.69,inactive: 2.84,inactive: 1.75
IHSGIYFKPES [L2HGDH_Y102_YF],inactive: 1.3,inactive: 1.23,inactive: 1.45,inactive: 1.37,inactive: 1.68,inactive: 1.43
HSGIYYKPESL [L2HGDH_Y103],inactive: 1.14,inactive: 1,inactive: 1.17,inactive: 0.832,inactive: 0.991,inactive: 1.14
YSGIYYKPESL [L2HGDH_Y103_H98Y],inactive: 1.4,active: 3.45,inactive: 1.55,inactive: 2.35,inactive: 1.74,inactive: 0.979
HSGIFYKPESL [L2HGDH_Y103_YF],inactive: 1.13,inactive: 0.972,inactive: 1.26,inactive: 1.16,inactive: 1.48,inactive: 1.33
CKPGFYNLKEK [LAMA1_Y490],inactive: 1.12,inactive: 1.05,inactive: 0.745,inactive: 0.851,inactive: 0.793,inactive: 0.938
FKPGFYNLKEK [LAMA1_Y490_C485Y_YF],inactive: 0.8,inactive: 0.78,inactive: 0.727,inactive: 0.656,inactive: 0.762,inactive: 0.578
VVGMLYVGGLP [LAMA2_Y2886],inactive: 1.06,inactive: 1.12,inactive: 0.841,inactive: 0.86,inactive: 1.15,inactive: 1.31

Binder,enrichment score [1],enrichment score [2],enrichment score [3],enrichment score [4],enrichment score [5],enrichment score [6]
VVGMLYVGRLP [LAMA2_Y2886_G2889R],inactive: 0.893,inactive: 0.792,inactive: 0.736,inactive: 0.708,inactive: 0.869,inactive: 0.707
GLPINYTTRRI [LAMA2_Y2894],inactive: 0.111,inactive: 0.217,inactive: 0.152,inactive: 0.217,inactive: 0.229,inactive: 0.143
RVILRYVNPGN [LAMA3_Y791_T796N],inactive: 1.4,inactive: 1.06,inactive: 1.04,inactive: 0.943,inactive: 1.17,inactive: 1.07
RLDPVYFVAPA [LAMC2_Y250],inactive: 0.758,inactive: 0.568,inactive: 0.799,inactive: 0.611,inactive: 0.778,inactive: 0.735
LSKDLYLISQM [LARP4_Y141],inactive: 1.38,inactive: 1.19,inactive: 1.15,inactive: 0.953,inactive: 1.04,inactive: 1.11
FIATQYSLCPR [LBR_Y166_R169C_YF],inactive: 0.761,inactive: 0.826,inactive: 1.27,inactive: 0.684,inactive: 1.78,inactive: 0.906
FIATQYSLRPR [LBR_Y166_YF],inactive: 0.257,inactive: 0.213,inactive: 0.216,inactive: 0.124,inactive: 0.273,inactive: 0.242
CENCHYPILPL [LCK_Y25_V28L],inactive: 0.926,inactive: 1.02,inactive: 0.873,inactive: 0.863,inactive: 0.871,inactive: 0.749
TDGNGYISFNE [LCP1_Y28],inactive: 0.634,inactive: 1.18,inactive: 0.757,inactive: 1.51,inactive: 0.75,inactive: 0.792
TEGNGYISFNE [LCP1_Y28_D24E],inactive: 0.646,inactive: 0.951,inactive: 0.731,inactive: 1.37,inactive: 0.841,inactive: 1.36
FKNGDYSEVMK [LCT_Y1638_N1639S],inactive: 0.748,inactive: 1.02,inactive: 0.71,inactive: 0.725,inactive: 0.861,inactive: 0.6
LQEKSYIKGTS [LCTL_Y331],inactive: 0.548,inactive: 0.509,inactive: 0.78,inactive: 0.337,inactive: 0.595,inactive: 0.542
NPIGLYSAEIL [LDB3_Y202_T206I],inactive: 0.978,inactive: 0.836,inactive: 0.874,inactive: 0.782,inactive: 0.986,inactive: 0.889
PQIVNYSPDCI [LDHB_Y128_K127N],inactive: 0.474,inactive: 0.686,inactive: 1.49,inactive: 0.597,inactive: 0.372,inactive: 0.66
SARFHYLMAEK [LDHB_Y173_R172H],inactive: 0.757,inactive: 0.9,inactive: 0.772,inactive: 0.643,inactive: 0.681,inactive: 0.843
SARFPYLMAEK [LDHB_Y173_R172P],inactive: 1.04,inactive: 0.868,inactive: 1.02,inactive: 0.84,inactive: 0.72,inactive: 1.23
FDKPVYQKTTE [LDLR_Y828_N825K],inactive: 0.644,inactive: 0.527,inactive: 0.459,inactive: 0.484,inactive: 0.611,inactive: 0.648
FDNPIYQKTTE [LDLR_Y828_V827I],inactive: 0.803,inactive: 0.983,inactive: 0.831,inactive: 0.789,inactive: 0.769,inactive: 0.964

# — the supplement of paper PMC10369915
